Source: the BET-seq Pho4 binding data (Le et al. 2018)
The other results are listed elsewhere or left out. The energies were worked out here from pooled read counts, against the library average; single values are noisy.

These sequences were tested against T1, Pho4 (S. cerevisiae) (UniProt P07270) (assay: relative binding free energy (BET-seq); higher = weaker binding). Settings: reference: library average.
T1 sequence: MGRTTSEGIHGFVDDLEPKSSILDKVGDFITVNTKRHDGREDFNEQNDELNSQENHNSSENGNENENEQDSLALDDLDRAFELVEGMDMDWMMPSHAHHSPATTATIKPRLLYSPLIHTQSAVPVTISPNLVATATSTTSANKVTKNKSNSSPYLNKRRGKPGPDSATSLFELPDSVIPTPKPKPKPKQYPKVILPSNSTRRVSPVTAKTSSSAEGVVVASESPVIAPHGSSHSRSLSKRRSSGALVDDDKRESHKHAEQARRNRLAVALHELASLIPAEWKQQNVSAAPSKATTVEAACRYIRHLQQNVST

Row | Sequence | relative binding free energy [kcal/mol]
1 | GTTCTCACGTGATAAG | 0.47
2 | TGTTGCACGTGTATAC | -0.05
3 | GGTATCACGTGGGCTC | 0.13
4 | AGAGTCACGTGGAGTC | 0.17
5 | GTGGTCACGTGATCTT | 0.34
6 | GGGTACACGTGTAAAG | 0.09
7 | TGATTCACGTGTAGTC | 0.26
8 | GTCTGCACGTGGGTCG | -0.12
9 | AGGGGCACGTGATGAA | -0.13
10 | ATGCTCACGTGGGTTT | 0.05
11 | TCTTCCACGTGGGTAT | 0.09
12 | CGTTTCACGTGTCTGT | 0.2
13 | GTAATCACGTGTGTTA | 0.22
14 | AGTGACACGTGTGGCG | 0.1
15 | GTATCCACGTGTGGTA | 0.01
16 | TAGGACACGTGCAGGG | 0.01
17 | GGTGGCACGTGTGTTC | 0.07
18 | AAATGCACGTGGAAGG | -0.01
19 | GGGGACACGTGTAGGA | 0.22
20 | AACAGCACGTGAGTGG | 0.19
21 | TGGAGCACGTGAAGGA | 0.09
22 | AGAGTCACGTGTCGTA | 0.1
23 | TGTATCACGTGCAGCG | 0.16
24 | TTAATCACGTGATGAT | 0.29
25 | TGAGGCACGTGCTGGC | -0.17

Row | Sequence | relative binding free energy [kcal/mol]
26 | AATAGCACGTGGTCGG | -0.18
27 | TCATGCACGTGTAGTG | -0.09
28 | GGTCTCACGTGATGTT | 0.3
29 | CTATTCACGTGAAGGG | 0.21
30 | GTGGTCACGTGTATAT | 0.09
31 | AGCTACACGTGTGTGA | 0.2
32 | ATTTGCACGTGGGTTC | -0.06
33 | AGGTGCACGTGAGGAT | 0.04
34 | TAGTGCACGTGCACTG | 0.03
35 | GAAAGCACGTGTTGGA | -0.02
36 | GGTCGCACGTGTTTTT | -0.02
37 | ATCGGCACGTGTGAGT | -0.02
38 | CAGTGCACGTGGGATT | -0.21
39 | ATTATCACGTGGTAAG | -0.08
40 | GTGGTCACGTGGGGAA | 0.03
41 | TTGGGCACGTGATTTA | -0.04
42 | CGGCACACGTGTAGGT | 0.07
43 | AATGGCACGTGTATGT | 0
44 | GCCGGCACGTGGGGCT | -0.18
45 | ATTTGCACGTGTATTG | 0.06
46 | GTTGGCACGTGTAGAA | 0.09
47 | CTTTGCACGTGGGGTC | -0.32
48 | GGAAGCACGTGTTTTG | -0.09
49 | AGTTGCACGTGAGTAA | 0.13
50 | GGTGGCACGTGGTGGC | 0

Row | Sequence | relative binding free energy [kcal/mol]
51 | GTTAGCACGTGTGTAA | -0.05
52 | GTCGTCACGTGATTGA | 0.18
53 | TGAATCACGTGGTACG | 0.13
54 | AGATACACGTGTGTGA | -0.01
55 | GTTTACACGTGGTGAA | 0.15
56 | TCATTCACGTGTGTAG | 0.08
57 | TATTACACGTGTATTG | 0.13
58 | AGCTGCACGTGCGGGT | -0.17
59 | GAACGCACGTGTGGGT | -0.02
60 | GTAGGCACGTGTCCGG | -0.11
61 | ATCTTCACGTGGGTCG | 0.13
62 | TGTTGCACGTGATGGC | 0.2
63 | GGCCACACGTGGTGGG | -0.03
64 | AGAGACACGTGTAGTG | 0.03
65 | AGTTTCACGTGTGAGG | 0.3
66 | ACGTGCACGTGAGAGT | -0.01
67 | ACGTACACGTGGTGGA | 0.07
68 | TGTGTCACGTGCACGT | -0.04
69 | CATTTCACGTGGCAGG | 0.26
70 | GGTTACACGTGTCATG | 0.01
71 | CTAGGCACGTGATGGG | 0.04
72 | TCGTGCACGTGTGTAT | 0.08
73 | GATTTCACGTGGTTGG | 0.3
74 | TCTAGCACGTGGGGCA | -0.15
75 | GTGGACACGTGATCTG | 0.13

Row | Sequence | relative binding free energy [kcal/mol]
76 | TTATACACGTGGTAAT | -0.01
77 | GGTAGCACGTGGTTTG | -0.07
78 | TTAAGCACGTGACGTT | 0.01
79 | CAATGCACGTGTTGTT | 0.04
80 | TTTAGCACGTGGGATA | -0.14
81 | TATTGCACGTGCGGTC | -0.07
82 | TTAGACACGTGTATAT | 0.05
83 | AAGGGCACGTGGTGGG | -0.23
84 | AGTGACACGTGGGCTG | -0.22
85 | CTGTTCACGTGATGGT | 0.43
86 | TCGATCACGTGTGGTG | 0.12
87 | TTTGTCACGTGCCTTG | -0.02
88 | GGTGTCACGTGTTCTG | 0.08
89 | ACTAACACGTGGGGGG | -0.24
90 | GTGAACACGTGCGTTG | -0.08
91 | TGGATCACGTGCTCTG | 0.24
92 | TTCGTCACGTGTAAAT | 0.18
93 | AGATGCACGTGTGTGT | -0.08
94 | AAAAACACGTGAGGTT | 0.31
95 | TTTATCACGTGAAGTC | 0.36
96 | TGGGTCACGTGCGTGC | -0.01
97 | TGGCACACGTGGGGTT | -0.1
98 | GATAACACGTGTTGAG | 0.03
99 | AGGGTCACGTGGCTGG | -0.03
100 | GGGTGCACGTGGCGCA | -0.28

Row | Sequence | relative binding free energy [kcal/mol]
101 | ATCGGCACGTGTGGTT | 0.07
102 | TGGGGCACGTGAGCTG | 0.13
103 | GGTAACACGTGTGTGA | 0.08
104 | GCGTGCACGTGCGGTT | -0.12
105 | GTTGACACGTGTGCTT | 0.03
106 | TTTTGCACGTGGAGCA | 0.06
107 | ATGGGCACGTGCGTGA | -0.22
108 | ACTTTCACGTGATGGA | 0.35
109 | AAGGACACGTGTTTTT | 0.15
110 | TTTACCACGTGGTTAG | -0.16
111 | CTTTGCACGTGGCATT | -0.02
112 | AAGTGCACGTGGTGTC | -0.1
113 | TCTAGCACGTGGGTCA | -0.14
114 | TGAGGCACGTGGTCGG | -0.13
115 | TTGTTCACGTGAGGTG | 0.4
116 | GTTGCCACGTGTAGGG | -0.06
117 | TAGTACACGTGTAATT | 0.16
118 | TGCGGCACGTGCGAAG | 0
119 | TAGTACACGTGAGGTT | 0.24
120 | TAATCCACGTGTTTTG | 0.14
121 | GCTGGCACGTGGGAGT | -0.22
122 | TAATACACGTGAAGTG | 0.1
123 | TGGGCCACGTGTCGGA | -0.13
124 | TGTCCCACGTGTGGTG | -0.23
125 | CAGATCACGTGGTTGG | 0

Row | Sequence | relative binding free energy [kcal/mol]
126 | GGTTTCACGTGCGTAA | 0.11
127 | TATGACACGTGCGGTG | -0.19
128 | ATAGGCACGTGGAGAT | -0.14
129 | TTCGTCACGTGTTGGG | 0.1
130 | ATTAGCACGTGCTGAG | -0.12
131 | ATTAGCACGTGGCAGT | -0.07
132 | TGTTTCACGTGTCAGC | 0.38
133 | GAGTTCACGTGTTTTC | 0.37
134 | ATGAGCACGTGTGATT | 0.08
135 | AGATTCACGTGGAGAA | 0.34
136 | GGGCACACGTGTTTTT | 0.1
137 | CGGGTCACGTGTTGTT | 0.19
138 | ATGCTCACGTGTTATT | 0.06
139 | TGCTTCACGTGGGGGT | 0.14
140 | GACGTCACGTGTAGGG | 0.11
141 | AGATTCACGTGGTATT | 0.21
142 | CCTGTCACGTGGTTGG | 0.1
143 | TGTCGCACGTGGGTCA | -0.37
144 | GTCAGCACGTGTTGCT | 0.12
145 | ATGTTCACGTGTGAGC | 0.26
146 | AAGGTCACGTGAGAGG | 0.24
